This note sets out measurements from PubChem BioAssay (NCI).

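Growth conditions: 96-well plates. Treatment: test compound, 48 hours, 5 concentrations. Analysis: linear interpolation between bracketing concentrations; unreached endpoints set to highest concentration. GI50 marks 50% less growth. At the TGI there is no net growth.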

The test deals with NCI-H322M lung. Description: inhibition of tumour cell growth, NCI panel, 48 h.

Regarding `COc1ccc2sc(NC(=O)CCCCCCNC(=O)C(O)(O)C(F)(F)F)nc2c1`, the GI50 is 1420 nM and the TGI was determined as 14300 nM.
The matching figures for `IP(CCCSc1n(Cc2ccc3ccccc3c2)c(-c2ccccc2)c(-c2ccccc2)[n+]1Cc1ccc2ccccc2c1)(c1ccccc1)(c1ccccc1)c1ccccc1`: 3620 nM and 25200 nM.
The matching figures for `O=C(Nc1cc(Cl)cc(Cl)c1)Nc1nc2ccc([N+](=O)[O-])cc2s1`: 1540 nM and 8840 nM.
The like results for `O=C(Nc1cccc(-c2nc(-c3ccc(NC(=O)c4cccnc4)cc3Cl)no2)c1)Nc1ccc(NC(=O)C2CC2)c(C(F)(F)F)c1` were, in that order, 474 nM and 2200 nM.
